According to a compilation of properties of binary mixtures (doi:10.1016/j.jct.2020.106330):
The densities may have been worked out from excess volumes.

Test: xn = mol fraction of the nth substance listed
Settings: 101.3 kPa

CN1CCCC1=O + CCCC[n+]1ccn(C)c1.F[P-](F)(F)(F)(F)F
x2 = 0
Settings	mass density [kg/m3]
308.15 K	1018.2
313.15 K	1013.7
318.15 K	1009.3
323.15 K	1004.8

CCCC[n+]1ccn(C)c1.F[P-](F)(F)(F)(F)F + CN1CCCC1=O
mass density [kg/m3]
Settings	303.15 K	308.15 K	313.15 K	318.15 K	323.15 K
x1 = 0.0513	1062.4	1058	1053.6	–	1044.8
x1 = 0.1028	1096.7	1092.3	1088	1083.6	1079.3
x1 = 0.1422	1119.8	1115.4	1111.1	1106.8	1102.5
x1 = 0.1894	–	1140.2	1135.9	1131.6	1127.3
x1 = 0.2988	–	1189	1184.7	1180.4	1176.1
x1 = 0.499	1260.6	1256.4	1252.2	–	1243.9
x1 = 0.591	–	1280.8	1276.6	–	1268.2
x1 = 0.6991	–	–	1301.8	1297.6	–
x1 = 0.812	1332.4	1328.2	1324.1	1319.9	1315.8
x1 = 0.8415	1337.7	1333.5	1329.4	1325.2	1321.1
x1 = 0.8812	1344.7	–	1336.3	1332.2	1328.1
x1 = 0.9423	1355.2	1350.9	–	1342.6	–
x1 = 1	–	1360.4	1356.2	1352.1	1348
